From PubChem BioAssay AID485344 (National Center for Advancing Translational Sciences (NCATS), 2010)
The campaign covered roughly 340,000 compounds. About 6,900 (2%) were called active. Rule as the data show it: active = inhibition above about 30%; inactive = below that, where a call was filed. This is a selection; strong and weak results do not stand in their true shares. Where no call is shown, the source filed none.
Also: 0% is about no effect.

The compounds below were run against D(2) dopamine receptor (Homo sapiens) (UniProt P14416) (assay: HTS Assay for Allosteric Antagonists of the Human D2 Dopamine Receptor: Primary Screen for Antagonists). Details: HEK293 TREx D2 cells, calcium flux, dopamine EC80; at 10 µM; stronger effect = higher value.
Chain of UniProt P14416 (P14416 whole entry, looked up): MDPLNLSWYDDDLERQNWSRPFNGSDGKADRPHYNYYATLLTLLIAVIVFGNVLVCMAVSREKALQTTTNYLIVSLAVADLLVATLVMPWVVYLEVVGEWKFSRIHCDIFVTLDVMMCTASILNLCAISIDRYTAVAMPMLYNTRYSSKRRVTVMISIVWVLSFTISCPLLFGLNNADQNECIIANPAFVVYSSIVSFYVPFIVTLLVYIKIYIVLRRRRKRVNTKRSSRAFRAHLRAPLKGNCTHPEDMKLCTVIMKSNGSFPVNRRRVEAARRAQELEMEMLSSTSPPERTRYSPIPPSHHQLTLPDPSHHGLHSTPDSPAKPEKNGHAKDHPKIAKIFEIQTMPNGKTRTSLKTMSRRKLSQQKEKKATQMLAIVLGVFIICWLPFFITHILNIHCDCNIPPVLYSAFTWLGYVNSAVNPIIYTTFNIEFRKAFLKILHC
Summary of the method: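 Overnight-induced (tetracycline, 30 C) HEK293 T-REx cells carrying force-coupled D2 receive a no-wash calcium dye, then compound, then EC80 dopamine at 180 s; signals are read kinetically throughout.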
For `Cc1[nH]n2c(=O)cc(Cc3ccccc3)nc2c1C#N`, the inhibition was active: 41.6%. Compound `Cc1ccccc1C(=O)Nc1ccc2oc(-c3ccc(Cl)c(Cl)c3)nc2c1` has an inhibition of -4.91%. `CCc1cccc(NC(=O)c2cccc3c2C(=O)N(C2CCCCC2)C3)c1` showed an inhibition of -2.1%. `O=C(NCC(c1cccnc1)N1CCc2ccccc21)C(=O)Nc1ccccc1F` (centres undefined) was tested, and the inhibition was 28.2%. For `COc1nnc(-c2ccc(N3CCCCC3)c(NC(=O)c3ccccc3)c2)c2ccccc12`, the inhibition was -4.97%. For `COc1ccc(Nc2ncnc3c2nc2n3CCCC2)cc1Cl`, the inhibition was -0.366%. `CC(NC(=O)c1cc(-c2ccc(Cl)cc2)on1)c1ccccc1` (centres undefined) gave an inhibition of -10.7%. Work on `CCOC(=O)c1c(C)n(S(=O)(=O)c2ccc(C)cc2)c2ccc(NS(=O)(=O)c3ccc(C)cc3)cc12` yielded an inhibition of -13.1%. `Cc1cc(Nc2cccc(C(F)(F)F)c2)nc2ccc(NC(=O)c3cccnc3)cc12` was tested, and the inhibition was 16.3%. Compound `CCOC(=O)c1c(C)oc2nc(C)nc(N3CCN(c4cccc(C)c4C)CC3)c12` has an inhibition of 6.04%. Compound `O=C(O)c1c2c(nc3ccc(S(=O)(=O)N4CCC(C(=O)NCc5ccc(Cl)cc5)CC4)cc13)CCCC2` has an inhibition of 6.93%. `COc1cccc(CNC(=O)Cn2c(SCC(=O)Nc3ccc(C)c(C)c3)nc3ccccc32)c1` gave an inhibition of 3.62%. In the case of `CCCCCOc1ccc(NC(=O)Cn2c(-c3cncs3)nc3ccccc32)cc1`, the inhibition is reported as 8.56%. `COc1cc(/C=C/c2nc3cc(Cl)ccc3c(=O)n2-c2ccc(C)cc2C)cc(OC)c1OC` was tested, and the inhibition was 2.54%. For `COc1ccc(S(=O)(=O)NCC(c2ccco2)N2CCN(c3ccccc3F)CC2)cc1C` (centres undefined), the inhibition was 18.3%. `CSc1ccc(NC(=O)Cn2nnnc2-c2ccccc2F)cc1` was tested, and the inhibition was 1.77%. `Cc1ccc(NC(=O)C2CCCN(S(=O)(=O)c3c(C)nn(C)c3C)C2)c(C)c1` (centres undefined) was tested, and the inhibition was 4.52%. `CCOc1ccc(C2C(C(N)=O)=C(C)Nc3nc(-c4cccc(Cl)c4)nn32)cc1OC` (centres undefined) gave an inhibition of 14.9%. For `Cc1cc(C)c(C#N)c(SCS(=O)Cc2ccc(Cl)cc2)n1` (centres undefined), the inhibition was active: 36.7%. For `CCOC(=O)N1CCN(Cc2nc3cc(NC(=O)c4ccc([N+](=O)[O-])cc4)ccc3n2C(C)C)CC1`, the inhibition was -18.5%. For `Cc1cccc(OCCSc2nc3ccccc3n2CC(=O)N2CCOCC2)c1C`, the inhibition was -3.61%. Work on `CCOc1ccc(S(=O)(=O)Nc2ccc(OC)c(Cl)c2)c2cccnc12` yielded an inhibition of 11.9%. With `O=S(=O)(Nc1cccc(-c2ccc(N3CCCC3)nn2)c1)c1cc(F)ccc1F` the inhibition was 1.89%. With `Cc1ccccc1C(=O)O/N=C(\c1ccccc1)c1ccccn1` the inhibition was active: 72.4%. Work on `COc1ccc(NC(=O)N2CCN(Cc3nc4ccc(C)cc4o3)CC2)cc1OC` yielded an inhibition of 0.864%. `CCCCNC(=O)CN1CCN(c2ccc(NC(=O)c3ccc(OC)cc3)cc2C(=O)O)CC1` was tested, and the inhibition was 12%. Work on `COc1ccc(-c2c(C#N)c(SCC(=O)Nc3ccc(C)c(C)c3)nc(C)c2C(=O)Nc2ccccc2)cc1OC` yielded an inhibition of -1.5%. For `COc1ccc(C)cc1NS(=O)(=O)c1ccc2c(c1)CCCN2C(C)=O`, the inhibition was -0.309%. `COCCN1CC(O)=C(c2nc3ccccc3c(=O)[nH]2)C1=N` was tested, and the inhibition was active: 38.2%. In the case of `Cc1ccc(S(=O)(=O)NCC(=O)OC(C)C(=O)c2ccccc2)cc1` (centres undefined), the inhibition is reported as active: 30.9%. `O=C1C=C(Nc2ccc(Cl)cc2)CC(c2ccc(Cl)cc2)C1` (centres undefined) was tested, and the inhibition was active: 47.7%. For `Cc1cc(C)n(-c2ccc(C(=O)OCC(=O)N(CC(C)C)C3CCS(=O)(=O)C3)cc2)n1` (centres undefined), the inhibition was active: 51.5%. Work on `COc1ccc(-c2nc(SCC(=O)NCC3CCCO3)c(-c3ccc(C)cc3)[nH]2)cc1OC` (centres undefined) yielded an inhibition of 17.6%. Compound `CCOC(=O)Cn1c(=N)n(CCOc2ccc(OC)cc2)c2ccccc21` has an inhibition of 0.223%. Compound `Cc1cccc(-n2c(=O)c3c(c4cc(C)ccc4n3C)n(CC(=O)Nc3ccc(C)c(C)c3)c2=O)c1` has an inhibition of -1.99%. For `CC(C)(C)NC(=O)Cn1cc(S(=O)(=O)Cc2ccccc2Cl)c2ccccc21`, the inhibition was -4.14%. Work on `COc1ccccc1N1CCN(c2c3c(nc4nncn24)CCC3)CC1` yielded an inhibition of 12.5%. Compound `Cc1cccc(NC(=O)Cn2c(=O)n(Cc3nc(-c4ccccc4)no3)c(=O)c3ccccc32)c1` has an inhibition of 6.1%. For `Cc1ccc(Oc2cc([N+](=O)[O-])cc3c2C(=O)Nc2ccccc2O3)cc1`, the inhibition was active: 30.1%. With `COc1ccc(CNC(=O)C2CCN(C(=O)N3CCOc4ccc(C)cc43)CC2)cc1` the inhibition was 2.44%. In the case of `O=C(NCc1ccc(Cl)cc1)c1cc2cccc3c2n1CCS3`, the inhibition is reported as 15.1%. `CC1CCCN(C(=O)c2ccc(CSc3nc4ccncc4n3Cc3ccccc3)cc2)C1` (centres undefined) gave an inhibition of 10.5%. Compound `CCc1cc(C(=O)N2CCN(c3ccccc3)CC2)no1` has an inhibition of 7.76%. In the case of `COc1cccc(CNC(=O)C2CCCN(c3nn4cc(-c5ccc(C)cc5)nc4s3)C2)c1` (centres undefined), the inhibition is reported as 4.51%. For `Cc1ccccc1CN1C(=O)C(O)(c2c[nH]c3ccccc23)c2cc(Cl)ccc21` (centres undefined), the inhibition was 0.312%. In the case of `O=c1c2sc3ccccc3c2n(Cc2cccc(Cl)c2)c(=O)n1Cc1ccc(F)cc1`, the inhibition is reported as 1.74%. `Cc1cc(C)c(NC(=O)Cn2nnc3sc4c(c3c2=O)CCC(C(C)(C)C)C4)c(C)c1` (centres undefined) was tested, and the inhibition was -0.19%. With `CCCCN1C(C(=O)c2ccccc2)=C(OC(=O)CC)c2ccccc2S1(=O)=O` the inhibition was 7.35%. Compound `COc1cc(C2c3c(-c4ccccc4O)n[nH]c3C(=O)N2Cc2ccncc2)cc(OC)c1OC` (centres undefined) has an inhibition of 7.49%. Compound `O=C(CCCc1nc(-c2ccc(Cl)cc2)no1)NCc1ccco1` has an inhibition of -9.02%. `CC1CCN(S(=O)(=O)c2ccc3c(c2)N(CC(=O)N(C)Cc2ccccc2)C(=O)CO3)CC1` gave an inhibition of 1.45%. `CCN(CC)c1cc(NC2CCCCC2)c2c3c(onc13)-c1ccccc1C2=O` showed an inhibition of 6.95%. `Cn1cnc(S(=O)(=O)N2CCC(C(=O)Nc3ccc(OC(F)(F)F)cc3)CC2)c1` was tested, and the inhibition was -5.07%. Work on `CCCCN(CC)CCCNC(=O)c1ccc2c(c1)N(Cc1ccc(C)cc1)C(=O)c1ccccc1S2` yielded an inhibition of -19%. `CCOc1ccc(C(=O)c2cn(CC(=O)Nc3ccc(C)c(Cl)c3)c3ccc(OCC)cc3c2=O)cc1` gave an inhibition of 8.41%. `COc1cc(NC(=O)COCc2cc(-c3ccc4c(c3)OCO4)on2)c(OC)cc1Cl` gave an inhibition of 10.6%. For `CC(=O)c1ccc(NC(=O)Cn2c(=O)nc(-c3ccccc3)c3ccccc32)cc1`, the inhibition was 6.32%. For `CCCCC(=O)OCc1cc(=O)n2nc(C3CC3)sc2n1`, the inhibition was -11.4%. In the case of `O=C(NC1(C(F)(F)F)N=C(c2ccccc2)N(Cc2ccccc2)C1=O)c1ccc(F)cc1` (centres undefined), the inhibition is reported as 7.59%. `CCOc1ccc(CCNC(=O)c2cc3n(n2)CCCN(Cc2ccc(C)cc2)C3=O)cc1OCC` gave an inhibition of -5.16%. `Cc1cc(-c2ccc(C)c(S(=O)(=O)Nc3ccc(C)c(N(C)C)c3)c2)on1` gave an inhibition of 13.6%. `Cc1nnc(N2CCCC(C(=O)Nc3cc(F)ccc3F)C2)c2nn(-c3ccccc3)c(C)c12` (centres undefined) gave an inhibition of -25.2%. `CC1CCN(c2nc3ccccc3nc2SCC(=O)Nc2ccccc2C(C)C)CC1` showed an inhibition of 1.69%. Work on `CCCN1CCN(c2ncnc3sc(C(=O)Nc4ccc(OC(F)(F)F)cc4)c(C)c23)CC1` yielded an inhibition of -6.72%. `CC(C)NC(=O)C1=CC(c2ccc3c(c2)OCO3)=NS(=O)(=O)N1C` was tested, and the inhibition was 9.11%. `COc1ccccc1CNC(=O)c1cc2cccc3c2n1CCS3` was tested, and the inhibition was 2.42%. `Cc1sc(NC(=O)C2c3ccccc3Oc3ccccc32)c(C(=O)OC(C)C)c1C` showed an inhibition of -2.53%. Work on `COc1ccc(-c2nc(CSCC(=O)NCCc3ccc(OC)c(OC)c3)c(C)o2)cc1` yielded an inhibition of -14.2%. `CCc1nn2c(=O)c(S(=O)(=O)Nc3ccc(C)cc3C)c(C)nc2s1` gave an inhibition of -13.7%. `Cc1ccc(S(=O)(=O)c2nnn3c2nc(N(C)Cc2ccccc2)c2cc(Cl)ccc23)cc1C` gave an inhibition of -2.63%. Work on `O=C(Nc1cc(Cl)ccc1O)c1cc(-c2ccc3c(c2)OCO3)on1` yielded an inhibition of 14.8%. `COc1ccc(C2C(C(=O)Nc3cccnc3)=C(C)Nc3nc(-c4ccc(OC)c(OC)c4)nn32)cc1` (centres undefined) gave an inhibition of -1.71%. In the case of `CCOC(=O)c1c(C)[nH]c(CCC(=O)NCc2cc(Br)ccc2OC)c1C`, the inhibition is reported as 7.4%. Compound `Cc1c(C(=O)N2CCCC2)oc2c1-c1nn(CC(=O)NCc3ccccc3F)cc1CC2` has an inhibition of -7.48%. With `COc1ccc(CNC(=O)CCS(=O)(=O)c2cc3c4c(c2)CCN4C(=O)CC3)cc1OC` the inhibition was -2.44%. `COc1ccc(NC(=O)c2ccc(CN3CCN(c4ccccc4)CC3)cc2)cc1` was tested, and the inhibition was active: 82.4%. For `COc1ccc(OC)c(C(=O)NC(CC(N)=O)c2ccc(N3CCN(c4ccccn4)CC3)c([N+](=O)[O-])c2)c1` (centres undefined), the inhibition was active: 31.7%. `Cc1cc(Cl)ccc1NC(=O)CCS(=O)(=O)c1ccc2c(c1)CC(C)N2C(=O)C1CC1` (centres undefined) was tested, and the inhibition was -0.501%. For `CCOc1ccccc1N(CC)C(=O)Cn1ncc2c1-c1ccccc1OC2`, the inhibition was 7.49%. For `CCOc1ccc(NC(=O)CSc2nc(-c3ccccc3)c3cc(OCC)ccc3n2)cc1`, the inhibition was 8.74%. `COc1ccc(CNC(=O)c2cnc3sc4cc(OC)ccc4n3c2=O)cc1` gave an inhibition of 10.1%. In the case of `CCN1CCN(c2nc(Nc3ccccc3)nc(N)c2[N+](=O)[O-])CC1`, the inhibition is reported as active: 84.2%. In the case of `CCC(CC)C(=O)N1CCc2cc(OC)c(OC)cc2C1COc1ccc2c(C)cc(=O)oc2c1` (centres undefined), the inhibition is reported as -5.72%. Work on `CCOc1ccc2nc(N(Cc3cccnc3)C(=O)c3ccco3)sc2c1` yielded an inhibition of 13.2%. Work on `O=C(c1cc(S(=O)(=O)N2CCCC2)c[nH]1)N1CCN(c2cccc(Cl)c2)CC1` yielded an inhibition of 3.68%. Compound `c1ccc(Nc2c(-c3ccccc3)nc3ncccn23)cc1` has an inhibition of -6.71%. Work on `CCN1C(=O)c2ccccc2Sc2ccc(NC(=O)Cc3ccc(OC)c(OC)c3)cc21` yielded an inhibition of 25.7%. For `COc1ccc(CN(C(=O)Nc2cc(C)ccc2C)C2CCN(C(C)=O)CC2)cc1`, the inhibition was 2.89%. `CCOc1cccc(CC(=O)NCc2ccc3c(c2)CCN3C(=O)c2cccc(C)c2)c1OCC` gave an inhibition of -27.1%. `COc1cc(NS(=O)(=O)c2ccc(NC(=O)COc3ccc(Cl)cc3Cl)cc2)nc(OC)n1` gave an inhibition of 3.36%. Compound `COc1cccc(C2C(C(N)=O)=C(C)Nc3nc(CCCO)nn32)c1` (centres undefined) has an inhibition of 6.69%. In the case of `COc1cccc(CNC(=O)Cc2c(C)c3cc4c(C)coc4cc3oc2=O)c1`, the inhibition is reported as 3.91%. `Cc1cc(C)cc(NC(=O)CSc2nccn2C2CCCC2)c1` was tested, and the inhibition was -11.9%. Compound `CCc1ccc(NC(=O)N2CCN(c3nnc(C)c4c(C)n(-c5ccc(Cl)cc5)nc34)CC2)cc1` has an inhibition of -11.8%.
